{"source": "PubChem BioAssay AID624296", "about": "(National Center for Advancing Translational Sciences (NCATS), 2012)", "note": "Hit rate of the full screen: of about 350,000 compounds, about 9,900 (2.8%) were called active. The inconclusive results got no clear call from the source; some entries with a clear call stand among them for comparison. The call rests on the fitted dose curve; in most records, active means well fitted activation curve with a large enough effect; inconclusive means small, poorly fitted or top-dose-only effect; inactive means no such curve, though single readings can be large or run the other way. Potencies of inconclusive entries are left out as doubtful fits. Potency means the concentration at half of the fitted maximal effect; tags describe the fitted curve by direction and shape.", "data": [{"assay": "A quantitative high throughput screen for small molecules that induce DNA re-replication in MCF 10a normal breast cells; further: nearly all actives have a fitted effect of over 50% in size; on activity, positive = re-replication: % of control where 0% means no effect.", "details": "MCF 10A DNA re-replication, Hoechst nuclear intensity, 48 h; activity, positive = re-replication: at 46.1 µM (top of the series)", "values": [{"smiles": "O=c1nc(-c2ccccc2)cn[nH]1", "Potency": "inconclusive [activator, partial curve, poor fit]"}, {"smiles": "Cc1ccc(C(C)C)c(OCc2ccc(C(=O)N/N=C/c3cccc(O)c3O)cc2)c1", "Potency": "inconclusive [activator, partial curve, poor fit]"}, {"smiles": "CCn1ncc(/C=C/C(=O)Nc2c(C)nn(Cc3ccc(Cl)cc3Cl)c2C)c1C", "Potency": "inactive"}, {"smiles": "C#CCOCCOCCOCCNc1nc(N2CCN(C(=O)CCCCCCCCCCNC(=O)Cn3cc(C[C@@H](C)O)nn3)CC2)nc(N2CCN(C(=O)CCCCCCCCCCNC(=O)[C@@H]([C@H](C)CC)n3cc(CCCCCN)nn3)CC2)n1", "Potency": "inconclusive [activator, single point]"}, {"smiles": "NS(=O)(=O)c1ccc(CCNC(=O)C2CCN(c3ncnc4c3nc3n4CCCCC3)CC2)cc1", "Potency": "inactive"}, {"smiles": "CCOc1cc(CNCc2ccncc2)cc(Cl)c1OC", "Potency": "inconclusive [activator, partial curve, poor fit]"}, {"smiles": "CC1=C(/C=C/C(C)=C/C=C/C(C)=C/CO)C(C)(C)CCC1", "Potency": "inconclusive [activator, single point]"}, {"smiles": "CCc1cc2ccc(OC)cc2nc1SCC(=O)N1CCN(C(=O)c2ccco2)CC1", "Potency": "inactive"}, {"smiles": "Brc1cccc(OCCCCN2CCCCC2)c1", "Potency": "inconclusive [activator, single point]"}, {"smiles": "C[C@H](NC(=O)c1nc[nH]c1C(=O)NCc1ccccc1)C(=O)OCc1ccccc1", "Potency": "inactive"}, {"smiles": "CCc1ccc(-c2cc(C)no2)cc1S(=O)(=O)NCCCN1CCN(c2ccccc2)CC1", "Potency": "inconclusive [activator, partial curve, poor fit]"}, {"smiles": "O=C(CCCCCNC(=S)Nc1ccccc1)C[N+](=O)[O-]", "Potency": "inactive"}, {"smiles": "C=CCn1c(CSCc2ccc(F)cc2)n[nH]c1=S", "Potency": "inactive"}, {"smiles": "Cc1cccc(OCC(=O)Nc2ccc(N3CCN(C(=O)c4ccco4)CC3)cc2)c1", "Potency": "inconclusive [activator, single point]"}, {"smiles": "CC(C)COc1cccc(-c2cc(C(=O)N/N=C/c3ccncc3)c3ccccc3n2)c1", "Potency": "active: 18.4 µM"}, {"smiles": "CC1Cc2ccccc2N1C(=O)c1nn(C)cc1Br", "note": "(stereo not given)", "Potency": "inactive"}, {"smiles": "Cc1ccccc1-n1c(SCC(=O)Nc2ccccc2Cl)nc2n[nH]c(C)c2c1=N", "Potency": "inconclusive [activator, single point]"}, {"smiles": "CC(Cc1cccs1)NC(=S)Nc1ccc(F)cc1", "note": "(stereo not given)", "Potency": "inactive"}, {"smiles": "Cc1ccc(NC(=O)CSc2ncccn2)c([N+](=O)[O-])c1", "Potency": "inconclusive [activator, single point]"}, {"smiles": "CCCc1ccc(S(=O)(=O)N/N=C\\c2ccc3c(c2)OCO3)cc1", "Potency": "inconclusive [activator, single point]"}, {"smiles": "CCCCSc1nnc(CNC(=O)C23CC4CC(CC(C4)C2)C3)n1Cc1ccccc1", "Potency": "inconclusive [activator, partial curve, poor fit]"}, {"smiles": "Cc1cccc(C(=O)N=c2sccn2C)c1[N+](=O)[O-]", "Potency": "inactive"}, {"smiles": "Cc1noc(C)c1S(=O)(=O)N(C)C[C@H]1Oc2c(NC(=O)Nc3ccc4c(c3)OCO4)cccc2C(=O)N([C@H](C)CO)C[C@@H]1C", "Potency": "inconclusive [activator, partial curve, poor fit]"}, {"smiles": "CN1CCN(c2ccc(Cl)cc2NC(=O)/C=C/c2ccc(F)cc2)CC1", "Potency": "inconclusive [activator, single point]"}, {"smiles": "CS(=O)(=O)N1CCN(c2ccc([N+](=O)[O-])c(NCc3ccc(Cl)cc3)c2)CC1", "Potency": "inconclusive [activator, single point]"}, {"smiles": "COc1ccc(-c2nc3ccc(C4=C(C)CC(=O)NN4)cc3[nH]2)cc1", "Potency": "inconclusive [activator, partial curve]"}, {"smiles": "CC1(C)CC(=O)C(C=Nc2ccc(NC3=C(C#N)C(=O)CC(C)(C)C3)cc2)=C(O)C1", "Potency": "inactive"}, {"smiles": "Cc1ccc(-c2nc(CS(=O)CC(=O)NCCCc3ccccc3)c(C)o2)cc1", "note": "(stereo not given)", "Potency": "inactive"}, {"smiles": "Cc1ccc(C(=O)OCC(=O)Nc2ccccc2)cc1NC(=O)c1ccco1", "activity, positive = re-replication": "inactive: 127% [at 0.0737 µM]"}, {"smiles": "O=C(O)c1ccc(/C=C/C(=O)c2ccc3c(c2)OCCCO3)cc1", "Potency": "inconclusive [activator, single point]"}, {"smiles": "O=C(Nc1ccccn1)c1ccc(COc2ccccc2Cl)o1", "Potency": "inconclusive [activator, single point]"}, {"smiles": "S=C(NCc1ccccc1)NC1CCCCC1", "Potency": "inactive"}, {"smiles": "COc1cccc2c(=O)cc(C)n(CC(=O)Nc3ccc(C)c(C)c3)c12", "Potency": "inactive"}, {"smiles": "Cc1nn(-c2ccccc2)c2[nH]c(C(F)(F)F)cc(=O)c12", "Potency": "inconclusive [activator, single point]"}, {"smiles": "Cc1ccc2cc(C)c(N3CCN(c4ccccn4)CC3)nc2c1", "Potency": "inconclusive [activator, single point]"}, {"smiles": "Cc1ccccc1Cn1nc(C)c(NC(=O)c2sc3ccccc3c2Cl)c1C", "Potency": "inconclusive [activator, single point]"}, {"smiles": "Cc1ccccc1N(C(=O)c1snc(C(N)=O)c1N)C(C(=O)NC1CCCCC1)c1ccc(O)cc1", "note": "(stereo not given)", "Potency": "inconclusive [activator, partial curve]"}, {"smiles": "CC(C)CCCC(C)C1CC(=O)C2=C3CCC4CC(O)CCC4(C)C3CCC21C", "note": "(stereo not given)", "Potency": "inconclusive [activator, full curve]"}, {"smiles": "COc1ccc(-c2csc3nc(C)nc(N4CCN(c5ccc(C(C)=O)cc5)CC4)c23)cc1OC", "Potency": "inactive"}, {"smiles": "CCCCCN(C(=O)CCC(=O)OCCOc1ccccc1Cl)c1c(N)n(CCCC)c(=O)[nH]c1=O", "Potency": "inconclusive [activator, partial curve, poor fit]"}, {"smiles": "Cc1cccc(-c2nn(-c3ccccc3)cc2C(=O)Nc2cccc(S(=O)(=O)NC3=NCCC3)c2)c1", "Potency": "inactive"}, {"smiles": "COC(=O)c1ccc2c(c1)C(C)(C)C(/C=C/c1ccc(OC)c(OC)c1OC)=[N+]2C", "Potency": "inconclusive [activator, single point]"}, {"smiles": "COc1ccc(OC)c(CN2CCN(C(=O)c3cc(S(=O)(=O)Nc4ccccc4OC)ccc3C)CC2)c1", "Potency": "inconclusive [activator, partial curve, poor fit]"}, {"smiles": "CN(C)CCCN(C(=O)CCOc1ccccc1)c1nc2ccc(F)cc2s1", "Potency": "inconclusive [activator, partial curve, poor fit]"}, {"smiles": "COc1ccccc1-c1oc2ccccc2c1-c1ccccc1OC", "Potency": "inconclusive [activator, full curve, poor fit]"}, {"smiles": "C=CCn1c(SCC(=O)Nc2sccc2C(N)=O)nc2ccc(Cl)cc2c1=O", "Potency": "inactive"}, {"smiles": "CC(C)Cn1c(SCc2nc3ccccc3c(=O)[nH]2)nc2ccccc2c1=O", "Potency": "active: 11.2 µM"}, {"smiles": "CN(Cc1ccno1)Cc1cn(Cc2ccccc2)nc1-c1ccc2c(c1)OCO2", "Potency": "inactive"}, {"smiles": "COC(=O)c1ccc(-c2nc(O)c(C)s2)cc1", "Potency": "inactive"}, {"smiles": "COc1ccccc1C1C2=C(N=C3SCC(=O)N31)c1ccccc1CC2", "note": "(stereo not given)", "Potency": "inactive"}, {"smiles": "COc1ccc(Br)cc1/C=N/Nc1ccc(S(=O)(=O)Nc2ccccc2C(=O)O)cc1[N+](=O)[O-]", "Potency": "inconclusive [activator, single point]"}, {"smiles": "CCn1c2ccccc2c2cc(NC(=O)c3ccccc3[N+](=O)[O-])ccc21", "Potency": "inconclusive [activator, partial curve]"}, {"smiles": "COc1ccc(C(=O)Nc2cccc(/C=C(/CCC(=O)O)c3nc4ccccc4s3)c2)cc1", "Potency": "inconclusive [activator, single point]"}, {"smiles": "C[N+](C)(C)CC(O)CC(=O)O", "note": "(stereo not given)", "Potency": "inactive"}, {"smiles": "CN(C)N1C(N)=C(C#N)C(c2ccsc2)C2=C1CC(C)(C)CC2=O", "note": "(stereo not given)", "Potency": "inactive"}, {"smiles": "CCCn1ncc(CN2CCC(C(=O)Nc3cccc(-c4cccc(F)c4)c3)CC2)c1C", "Potency": "inconclusive [activator, single point]"}, {"smiles": "Cc1cccc(N2C(=O)C(Oc3ccc(Cl)cc3Cl)C2C=O)c1C", "note": "(stereo not given)", "Potency": "active: 18.4 µM"}, {"smiles": "Cc1ccccc1N(CC(=O)NCc1ccccc1)C(=O)CCC(=O)Nc1nccs1", "Potency": "inactive"}, {"smiles": "O=C(NCC(=O)N1CC=C(c2ccccc2)CC1)c1ccc(OC(F)F)cc1", "Potency": "active: 8.2 µM"}, {"smiles": "CC(C)(C)c1ccc(C(=O)Nc2ccc(CC(=O)O)cc2)o1", "Potency": "inactive"}, {"smiles": "COc1ccccc1NC(=O)c1ccc(C)c(S(=O)(=O)N2CCCCC2)c1", "Potency": "inconclusive [activator, partial curve, poor fit]"}, {"smiles": "CCCCn1c(=O)nc2n(-c3ccc(C)cc3)c3ccccc3cc-2c1=O", "Potency": "inactive"}, {"smiles": "COc1ccc(N=Cc2c(O)ccc3ccccc23)cc1", "Potency": "inactive"}, {"smiles": "O=S1(=O)CC/C(=N/Nc2ccc(C(F)(F)F)cn2)c2cc(F)ccc21", "Potency": "inconclusive [activator, single point]"}, {"smiles": "CC1CCN(C(=O)Cn2c(=O)c3cccn3c3ccccc32)CC1", "Potency": "inactive"}, {"smiles": "CCOC(=O)c1c(C)n(CC(O)CN(C)C)c2cc(Br)c(OC)cc12", "note": "(stereo not given)", "Potency": "inactive"}, {"smiles": "CC(=O)N1CCN(c2ccc(NCc3ccco3)cc2)CC1", "Potency": "inactive"}, {"smiles": "COc1ccc(C[C@H]2CN3C(=NC[C@@H]3C(C)C)N2CCNC(=O)CCC2CCCCC2)cc1", "Potency": "inconclusive [activator, single point]"}, {"smiles": "CCOC(=O)C1CCN(C(=O)COc2ccc3c(C)cc(=O)oc3c2)CC1", "Potency": "inconclusive [activator, single point]"}, {"smiles": "COC(=O)CCc1sc(Nc2ccc(Br)cc2)nc1-c1ccc(OC)cc1", "Potency": "inconclusive [activator, single point]"}]}]}
